In all, about 350,000 compounds went through this assay and about 9,900 (2.8%) were called active. Inconclusive means that the source gave no clear call. Such entries were picked first, then a sample of the others. Calls follow the shape of the dose curve; as a rule, active = well fitted activation curve with a large enough effect; inconclusive = small, poorly fitted or top-dose-only effect; inactive = no such curve, though single readings can be large or run the other way. No potency is given beside an inconclusive call; the fits are too rough.
Experiment: A quantitative high throughput screen for small molecules that induce DNA re-replication in MCF 10a normal breast cells. Also: nearly all actives have a fitted effect of over 50% in size. As to activity, positive = re-replication: % of control where 0% means no effect.
Settings: MCF 10A DNA re-replication, Hoechst nuclear intensity, 48 h; activity, positive = re-replication: at 46.1 µM (top of the series)
For `CC[N+](CC)(CC)CC(=O)Nc1ccc(SC(F)F)cc1`, the “activity, positive = re-replication” value was inactive: 3.47%.
With `O=C1CSC(=S)N1/N=C/c1cccnc1` the Potency was inconclusive [activator, partial curve, poor fit].
With `COc1cc(Br)c(Br)c(Br)c1N` the Potency was inconclusive [activator, partial curve, poor fit].
With `Cc1ccccc1Nc1nc(NCc2ccco2)c2ccccc2n1` the Potency was inconclusive [activator, single point].
For `CCCCN(C)CCCNC(=O)c1cccc(N2CCCC2=O)c1`, the Potency was inconclusive [activator, single point].
For `Cc1cc(SCc2cc(=O)[nH]c3ccccc23)nc2ccccc12`, the Potency was inconclusive [activator, full curve, poor fit].
For `FC(F)(F)c1cc(-c2ccco2)nc(NCc2cccnc2)n1`, the Potency was inconclusive [activator, single point].
With `CCOc1ccc2nc3cc(NCc4ccc(OC)cc4)ccc3c(N)c2c1` the Potency was active: 14.6 µM.
For `CC(C)C(=O)N1CCN(c2ccccc2NC(=O)COc2ccc(C3CCCCC3)cc2)CC1`, the Potency was active: 18.4 µM.
With `O=C(CSc1nn(-c2ccccc2)c(=S)s1)Nn1cnnc1` the “activity, positive = re-replication” value was inactive: -1.86%.
For `O=C(NCC1CCCO1)c1ccc(S(=O)(=O)Nc2ccccc2F)cc1` (configuration not stated), the Potency was inconclusive [activator, full curve, poor fit].
For `CC(=O)Nc1nnc(SCC(=O)c2ccc3c(c2)Cc2ccccc2-3)s1`, the Potency was inconclusive [activator, partial curve].
For `COc1cccc(NC(=O)CN(C)C(=O)c2cc(-c3ccc(F)cc3)nc3ccccc23)c1`, the Potency was inconclusive [activator, single point].
For `O=S1(=O)CCS(=O)(=O)C1c1ccccc1`, the Potency was inconclusive [activator, single point].
With `CCCCn1c(N)c(N(CCOC)C(=O)COC(=O)C(C)Oc2ccc(Cl)cc2)c(=O)[nH]c1=O` (configuration not stated) the “activity, positive = re-replication” value was inactive: -2.36%.
For `C[C@]12C(=O)N(c3ccc(Cl)cc3)C(=O)N1[C@@H]1c3ccccc3OC[C@@H]1[C@H]2c1ccccc1`, the Potency was inconclusive [activator, full curve, poor fit].
In the case of `CCN(CC)S(=O)(=O)c1cccc2cccnc12`, the “activity, positive = re-replication” value is reported as inactive: -1.66%.
In the case of `CCOC(=O)c1[nH]c2ccc(OC)cc2c1N=CN(C)C`, the Potency is reported as inconclusive [activator, partial curve, poor fit].
With `COc1cc(C(=O)Nc2ccc3oc(-c4cccnc4)nc3c2)cc(OC)c1OC` the Potency was inconclusive [activator, partial curve].
With `COc1cc2c(cc1NC(=O)COCC(=O)O)oc1ccccc12` the “activity, positive = re-replication” value was inactive: 7.03%.
With `Clc1ccc(Nc2cc(-c3ccccc3)nc3ncnn23)cc1` the Potency was inconclusive [activator, partial curve, poor fit].
For `CCOc1cc(CNCCO)cc(Br)c1OCc1ccc(Cl)cc1`, the Potency was inconclusive [activator, partial curve, poor fit].
In the case of `O=C(Nc1nccs1)c1cc2c(s1)-c1ccccc1OC2`, the Potency is reported as active: 9.2 µM.
In the case of `Cc1c(C(=O)Nc2nccs2)oc2ccc(F)cc12`, the “activity, positive = re-replication” value is reported as inactive: -3.27%.
In the case of `COc1ccc(CNC(=O)c2ccc(C(C)C)cc2)cc1`, the “activity, positive = re-replication” value is reported as inactive: 1.38%.
For `O=S(=O)(c1c(F)cccc1F)N(CCc1ccc(F)cc1)C[C@@H](O)COCc1ccccc1`, the Potency was inconclusive [activator, single point].
In the case of `CC(=O)c1ccc(NC(=O)CSc2nnc(-c3ccco3)c(-c3ccco3)n2)cc1`, the Potency is reported as inconclusive [activator, partial curve, poor fit].
In the case of `CCCCN(C(=O)c1cc(CN2C(=O)c3ccccc3C2=O)ccc1OC)c1c(N)n(CC(C)C)c(=O)[nH]c1=O`, the “activity, positive = re-replication” value is reported as inactive: -4.55%.
For `CC(=O)c1nc2ccccc2n1CCc1ccccc1`, the Potency was active: 1.84 µM.
In the case of `CC(C)CC(=O)Nc1ccc(Oc2ccc3c(c2)C(=O)NC3=O)cc1`, the “activity, positive = re-replication” value is reported as inactive: -0.0919%.
With `O=c1[nH]c2cc([N+](=O)[O-])ccc2c2ccc([N+](=O)[O-])cc12` the “activity, positive = re-replication” value was inactive: 2.84%.
With `O=C1NC2=C(CCc3ccccc32)C(c2ccccc2)N1` (configuration not stated) the Potency was inconclusive [activator, single point].
For `C/C=C(\C)C(=O)OC1[C@H](OC(C)=O)C2(CO)C(CC1(C)C)C1=CCC3C4(C)CCC(O[C@@H]5O[C@H](C(=O)O)[C@@H](O[C@@H]6O[C@H](CO)[C@@H](O)[C@H](O)[C@H]6O)[C@H](O)[C@H]5O[C@H]5O[C@H](CO)[C@@H](O)[C@H](O)[C@H]5O)[C@](C)(CO)C4CCC3(C)[C@]1(C)C[C@H]2O` (some centres not stated), the Potency was active: 6.51 µM.
With `CCCCN(C(=O)c1ccc(-c2ccc([N+](=O)[O-])cc2)o1)c1c(N)n(CC(C)C)c(=O)[nH]c1=O` the Potency was inconclusive [activator, single point].
With `CCCCC(=O)Nc1ccc(C)c(S(=O)(=O)N2CCCCCC2)c1` the Potency was inconclusive [activator, single point].
In the case of `COc1ccc2c(c1)O[C@@H](c1ccc3c(c1)OCO3)[C@H](OC(=O)Nc1cc(OC)c(OC)c(OC)c1)C2=O`, the Potency is reported as active: 3.66 µM.
With `Cc1ccc(-n2nnnc2Sc2nc([N+](=O)[O-])nn2C)cc1C` the Potency was inconclusive [activator, single point].
For `Cn1nc([N+](=O)[O-])nc1Sc1cccc2cccnc12`, the “activity, positive = re-replication” value was inactive: 1.42%.
In the case of `COc1ccc(-c2noc(CCCC(=O)NCc3ccco3)n2)cc1OC`, the “activity, positive = re-replication” value is reported as inactive: -9.45%.
In the case of `CCO[C@H]1OC(C(=O)Nc2ccccc2)=C[C@@H](c2csc3ccccc23)[C@@H]1CCCO`, the Potency is reported as inconclusive [activator, single point].
In the case of `S=c1[nH]nc(-c2cc(-c3ccccc3)n[nH]2)n1/N=C/c1ccc(Br)s1`, the Potency is reported as inconclusive [activator, single point].
For `COc1ccc(N2CCN(CCS(=O)(=O)c3cc(Cl)ccc3Cl)CC2)cc1`, the Potency was active: 5.8 µM.
For `Cc1ccc(C)c(N(C)S(=O)(=O)c2ccc3[nH]cc(C(=O)NCCN4CCOCC4)c(=O)c3c2)c1`, the “activity, positive = re-replication” value was inactive: 2.19%.
For `Cc1cccc(/C=N/n2c(-c3ccncc3)n[nH]c2=S)c1`, the Potency was inconclusive [activator, partial curve, poor fit].
In the case of `COc1ccccc1/C=C/C=N/NC(=O)c1ccccn1`, the “activity, positive = re-replication” value is reported as inactive: -0.788%.
In the case of `O=C(Nc1cccc2cccnc12)c1ccc2c(c1)OCCO2`, the Potency is reported as inconclusive [activator, single point].
For `CC(=O)c1ccc(CCCc2ccc(C(C)=O)cc2)cc1`, the Potency was inconclusive [activator, single point].
For `CCOC(=O)NC(=O)c1cn(-c2ccc(OC)cc2)c(=O)[nH]c1=O`, the “activity, positive = re-replication” value was inactive: -2.13%.
For `COCCCNC(=O)CCN1C(=O)COc2ccccc21`, the Potency was inconclusive [activator, partial curve, poor fit].
In the case of `O=C(CSc1ccc(-c2cccnc2)nn1)Nc1ccccc1`, the “activity, positive = re-replication” value is reported as inactive: 1.48%.
In the case of `CNC(=S)N/N=C/c1cn(Cc2ccc(F)cc2)c2ccccc12`, the Potency is reported as inconclusive [activator, partial curve, poor fit].
In the case of `CCOc1ccccc1C(C(=O)NCCOC)N(CCOC)C(=O)Cn1nnc2ccccc21` (configuration not stated), the Potency is reported as inconclusive [activator, partial curve, poor fit].
For `CCN(CC)c1ccc(C(=O)N/N=C/c2ccc(N3CCOCC3)cc2)cc1`, the Potency was inconclusive [activator, single point].
For `CC(NC(=O)COC(=O)c1c[nH]c2ccccc12)c1ccccc1` (configuration not stated), the Potency was inconclusive [activator, single point].
With `COC(=O)C(C)n1cnc2c(cnn2-c2ccc(Cl)cc2)c1=O` (configuration not stated) the Potency was inconclusive [activator, partial curve, poor fit].
With `Cc1cccc(C(=O)N2CCN(c3ccccn3)CC2)c1` the “activity, positive = re-replication” value was inactive: -0.231%.
In the case of `CCn1c(CNC(=O)COc2ccc(C(C)C)cc2)nnc1SCC(=O)Nc1ccccc1C(C)C`, the Potency is reported as inconclusive [activator, single point].
With `COc1cccc(/C=N\NS(=O)(=O)c2ccccc2)c1OC` the Potency was inconclusive [activator, single point].
In the case of `Cc1ccc(S(=O)(=O)Nc2cc(-c3nn(C)c(=O)c4ccccc34)ccc2N2CCOCC2)cc1`, the Potency is reported as inconclusive [activator, full curve, poor fit].
With `CCOc1cccc(NC(=O)Cn2nc(-c3ccc4c(c3)OCCO4)ccc2=O)c1` the Potency was inconclusive [activator, single point].
For `COC(Cn1c2c(c3cc(C)ccc31)CCCC2NCc1ccccc1)OC` (configuration not stated), the Potency was inconclusive [activator, partial curve].
With `O=c1cc(CSc2nnc(Nc3ccccc3F)s2)nc2sccn12` the Potency was inconclusive [activator, single point].
In the case of `COc1ccc(C(=O)N[C@H](C(=O)NCCCn2nc(C)cc2C)C(C)C)cc1`, the “activity, positive = re-replication” value is reported as inactive: 0.879%.
With `COc1ccc2ccc3cccc[n+]3c2c1` the Potency was inconclusive [activator, single point].
In the case of `O=C(CCS(=O)(=O)Cc1ccccc1F)N1CCc2ccccc2C1`, the Potency is reported as inconclusive [activator, single point].
For `COCCCn1c(SCc2cccc(OC)c2)nc2cc(OC)c(OC)cc2c1=N`, the Potency was inconclusive [activator, single point].
With `C=CCOc1ccc(CNCCc2ccc(S(N)(=O)=O)cc2)cc1` the Potency was inconclusive [activator, partial curve, poor fit].
Potency is read from the fitted curve at half-maximal effect; tags tell the direction and shape of the fitted curve.
